PubChem BioAssay AID1347428 (National Center for Advancing Translational Sciences (NCATS), 2020)
“And” between values parts separate entries of the source, which are not always exact repeats. Equal entries are not always repeated. Screen size: about 91,000 compounds; about 290 (0.32%) were called active. The inconclusive results got no clear call from the source; some entries with a clear call stand among them for comparison. Calls come from the whole dose curve; as a rule, active = well fitted inhibition curve with a large enough effect; inconclusive = small, poorly fitted or top-dose-only effect; inactive = no such curve, though single readings can be large or run the other way. Where the call is inconclusive, the potency comes from a doubtful curve fit.
Note: nearly all actives have a fitted effect of over 25% in size.
Potency is the fitted concentration of half-maximal effect; tags give direction and shape of the fitted curve.

Each compound was assayed against Single-stranded DNA cytosine deaminase (Homo sapiens) (UniProt Q9GZX7) (assay: Primary qHTS assay for inhibitors of Activation Induced Cytidine Deaminase (AID): AID signal). Conditions: AID deamination FRET fluorescence, UDG-coupled, 4 h; series mostly up to 115 µM.
UniProt Q9GZX7, sequence (Q9GZX7 whole entry, looked up): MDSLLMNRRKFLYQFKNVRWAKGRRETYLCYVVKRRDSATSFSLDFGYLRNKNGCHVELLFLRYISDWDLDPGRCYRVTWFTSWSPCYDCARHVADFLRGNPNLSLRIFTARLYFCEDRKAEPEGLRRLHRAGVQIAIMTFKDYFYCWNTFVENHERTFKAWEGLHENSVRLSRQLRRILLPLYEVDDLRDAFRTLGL
For `O=C(CCSCc1cccc(Cl)c1)NCc1ccccc1Cl`, the Potency was inconclusive: 17.8 µM [inhibitor, full curve, poor fit]. `CCN(CC)c1cc(C)c2cc(NC(=O)/C=C/c3ccccc3Cl)ccc2n1` was tested, and the Potency was inconclusive: 20 µM [inhibitor, full curve, poor fit]. With `CCCN(CCO)CC(=O)NC(CC)CC` the Potency was “inactive”. With `O=C(O)c1ccc(NCc2nc3ccccc3n2CCOc2ccccc2Cl)cc1` the Potency was inconclusive: 50.1 µM [inhibitor, partial curve, poor fit]. `COc1ccc(NC(=O)c2cc(C(C)=O)n3ccccc23)cc1` was tested, and the Potency was inconclusive: 17.8 µM [inhibitor, full curve, poor fit]. In the case of `Cc1ccc(CN2CCC(CNC(=O)c3cnn(-c4ccccc4)c3C3CCN(C(=O)OC(C)(C)C)CC3)CC2)cc1`, the Potency is reported as inconclusive: 79.4 µM [inhibitor, partial curve, poor fit]. For `O=C(O)c1ccc(-c2ccco2)cc1`, the Potency was “inactive”. With `O=C(CN1CCN(c2ccc(Cl)cc2)CC1)Nc1ccc(Cl)c(C(F)(F)F)c1` the Potency was inconclusive: 20 µM [inhibitor, full curve, poor fit]. For `Cc1nc2cc(NC(=O)COc3cccc(Br)c3)ccc2o1`, the Potency was “inactive”. In the case of `O=C(Nc1nnc(C2CC2)s1)c1ccc(Cl)c(S(=O)(=O)N2CCc3ccccc32)c1`, the Potency is reported as “inactive”. With `O=C(CCSCc1ccc(Cl)cc1)N1CCN(c2ccccc2F)CC1` the Potency was inconclusive: 70.8 µM [inhibitor, partial curve]. With `CCS(=O)(=O)c1nc(S(=O)(=O)c2ccc(C)cc2)c(NC2CCCC2)s1` the Potency was “inactive”. For `COc1ccc(Cc2nnc3n2N(C(C)=O)C(c2ccc(Cl)c(Cl)c2)=C(C(C)=O)S3)cc1`, the Potency was “inactive”. For `Clc1ccccc1-c1nc(N2CCCCC2)c2ccccc2n1`, the Potency was “inactive”. In the case of `O=C(COCc1cc(-c2cccs2)on1)NCc1ccccc1Cl`, the Potency is reported as inconclusive: 39.8 µM [inhibitor, partial curve, poor fit]. For `COc1ccc(-c2noc(CSc3nnc(-c4ccccc4)n3-c3ccc(F)cc3)n2)c(OC)c1`, the Potency was inconclusive: 35.5 µM [inhibitor, full curve, poor fit]. With `Cc1ccc(S(=O)(=O)N(CC(=O)N2CCc3ccccc3C2)c2ccc(C)c(C)c2)cc1` the Potency was inconclusive: 39.8 µM [inhibitor, single point]. For `CCOc1ccccc1NC(=O)CSc1ncc(S(=O)(=O)c2ccc(C(C)(C)C)cc2)c(=O)[nH]1`, the Potency was inconclusive: 50.1 µM [inhibitor, partial curve, poor fit]. `COc1cccc(CNC(=O)CSc2nc3ccccc3nc2Cc2ccc(C)cc2)c1OC` was tested, and the Potency was inconclusive: 3.55 µM [inhibitor, full curve, poor fit]. In the case of `Clc1cccc(CSc2cccc3cccnc23)c1`, the Potency is reported as active: 25.1 µM. With `O=C(CC(c1ccccc1)S(=O)(=O)c1ccccc1)c1ccc(F)cc1` (configuration not stated) the Potency was “inactive”. `Cc1ccc2cccc(NC(=O)C(C)Oc3ccc(C)c(C)c3)c2n1` (configuration not stated) was tested, and the Potency was inconclusive: 79.4 µM [inhibitor, partial curve, poor fit]. `CCOc1ccc(C(=O)c2cn(Cc3ccc(OC)cc3)c3cc(OC)c(OC)cc3c2=O)cc1` was tested, and the Potency was inconclusive: 17.8 µM [inhibitor, full curve, poor fit]. With `CCc1cccc(NC(c2nnc(-c3ccccc3)o2)c2ccc(F)cc2Cl)c1` (configuration not stated) the Potency was inconclusive: 14.1 µM [inhibitor, full curve, poor fit]. In the case of `COc1ccc2c(c1)Cc1sc(NC(=O)c3cccc(F)c3)nc1-2`, the Potency is reported as inconclusive: 79.4 µM [inhibitor, partial curve]. With `CCOc1ccc(-c2cc(C(=O)N3CCN(c4cccc(C)c4)C(C)C3)c3ccccc3n2)cc1` (configuration not stated) the Potency was inconclusive: 15.8 µM [inhibitor, full curve]. With `Cc1ccc(C)c(Cn2c(SCC(=O)N(C)Cc3ccccc3)nc3ccccc32)c1` the Potency was inconclusive: 35.5 µM [inhibitor, partial curve, poor fit]. With `COc1ccc(NC(=O)c2nc3ccccc3nc2N2CCCCC2)cc1` the Potency was “inactive”. In the case of `O=C(NCc1cccs1)c1ccccc1-c1ccccc1`, the Potency is reported as “inactive”. In the case of `CC(C)c1ccc2oc(-c3cc(NC(=O)c4cccnc4)ccc3Cl)nc2c1`, the Potency is reported as inconclusive: 39.8 µM [inhibitor, partial curve, poor fit]. `O=C(NCc1cccc(Cl)c1)c1ccc2c(Cl)c3c(nc2c1)CCCC3` was tested, and the Potency was inconclusive: 44.7 µM [inhibitor, partial curve, poor fit]. With `CCCCCCc1ccc(-c2ccc(OC)cc2)nc1` the Potency was “inactive”. For `Cc1ccc(C)c(CSc2cn(CCNC(=O)c3cccs3)c3ccccc23)c1`, the Potency was inconclusive: 79.4 µM [inhibitor, partial curve, poor fit]. `CC(C)(C)C(=O)Nc1ccc2nc(SCCOc3ccccc3Cl)sc2c1` was tested, and the Potency was inconclusive: 39.8 µM [inhibitor, single point]. For `COc1ccc(-n2c(SCc3nc(-c4ccc(Cl)cc4)no3)nnc2-c2ccncc2)cc1`, the Potency was inconclusive: 14.1 µM [inhibitor, full curve, poor fit]. With `NC(=S)Nc1cccc2ncccc12` the Potency was “inactive”. In the case of `Cc1ccc(C(C)C)c(OCCCn2c(=O)oc3ccc(C)cc32)c1`, the Potency is reported as inconclusive: 35.5 µM [inhibitor, partial curve]. For `Cc1c(CC(=O)Nc2ccc(C(C)C)cc2)c(=O)oc2cc(O)ccc12`, the Potency was “inactive”. `CCOCCCNC(=O)Cn1cc2c(n1)-c1c(oc(C(=O)N3CCCC3)c1C)CC2` was tested, and the Potency was active: 79.4 µM. `CC1CCCN(c2nc(-c3ccccc3O)nc3ccccc23)C1` (configuration not stated) was tested, and the Potency was inconclusive: 50.1 µM [inhibitor, partial curve, poor fit]. `CCOc1ccc2c(c1)c(=O)c(C(=O)c1ccc3c(c1)OCO3)cn2Cc1cccc(F)c1` was tested, and the Potency was inconclusive: 22.4 µM [inhibitor, full curve, poor fit]. `CCOc1ccc(-n2c(C)nc3cc(C(=O)NCc4ccc(C)cc4)ccc32)cc1` was tested, and the Potency was active: 31.6 µM. In the case of `CCOc1ccc(OCC)c(NC(=O)c2cnn(-c3ccc(F)cc3)c2C2CCN(C(=O)OC(C)(C)C)CC2)c1`, the Potency is reported as inconclusive: 25.1 µM [inhibitor, full curve, poor fit]. For `COc1cccc(-c2nn(C)c3sc(C(=O)NCCc4cccc(C)c4)cc23)c1`, the Potency was inconclusive: 28.2 µM [inhibitor, full curve, poor fit]. In the case of `Cc1cccc(S(=O)(=O)N2CCC(n3c(CC(C)C)nc4cccnc43)CC2)c1`, the Potency is reported as inconclusive: 56.2 µM [inhibitor, partial curve, poor fit]. With `CCCn1cc(S(=O)(=O)c2ccccc2)c(=O)c2cc(F)c(N3CCCCCC3)cc21` the Potency was inconclusive: 17.8 µM [inhibitor, full curve, poor fit]. For `CCOc1cc(/C=C/c2nc3ccccc3s2)ccc1O`, the Potency was “inactive”. For `CCc1ccc(C(=O)COC(=O)/C(=C\c2ccccc2)NC(C)=O)cc1`, the Potency was “inactive”. For `CCOc1ccc(NC(=O)c2c(-n3cnnn3)sc(C)c2C)cc1`, the Potency was “inactive”. For `CC1CCn2c(nc3cc(C(=O)NCCc4ccccc4)ccc32)C1` (configuration not stated), the Potency was inconclusive: 22.4 µM [inhibitor, partial curve, poor fit]. With `CCN(CC)S(=O)(=O)c1ccc(N(C)C)c(NS(=O)(=O)c2ccccc2C(F)(F)F)c1` the Potency was “inactive”. With `O=C(Nc1ccc(Cl)c(-c2nc3ccccc3o2)c1)c1ccc(-c2cccc([N+](=O)[O-])c2)o1` the Potency was inconclusive: 79.4 µM [inhibitor, single point]. For `COc1ccccc1N1CCN(C(c2ccc(Cl)cc2)c2nnc(-c3cccc(F)c3)o2)CC1` (configuration not stated), the Potency was inconclusive: 14.1 µM [inhibitor, full curve]. `Cc1ccc(-n2ncc(C(=O)NCc3ccccc3)c2C2CCN(C(=O)OC(C)(C)C)CC2)cc1` was tested, and the Potency was inconclusive: 31.6 µM [inhibitor, full curve]. With `COC(=O)[C@H](CC(C)C)NC(=O)N1CCc2[nH]cnc2C1c1ccc(OC)cc1F` (some centres not stated) the Potency was “inactive”. In the case of `COc1ccccc1Nc1c2c(nc3ccc(NC(=O)c4ccc(OC)c(OC)c4)cc13)CCCC2`, the Potency is reported as inconclusive: 50.1 µM [inhibitor, partial curve, poor fit]. `Brc1ccc(-c2noc(Cc3cccs3)n2)o1` was tested, and the Potency was “inactive”. For `COc1ccccc1N(CC(=O)N1CCC(C)CC1)S(=O)(=O)c1ccc(C)cc1`, the Potency was inconclusive: 70.8 µM [inhibitor, single point]. In the case of `CCN(C(=O)Cn1nc(Cc2ccncc2)c2ccccc2c1=O)c1cccc(Cl)c1`, the Potency is reported as inconclusive: 39.8 µM [inhibitor, partial curve, poor fit]. In the case of `O=C(C1=C(O)C(=O)N(CCc2ccccc2)C1c1ccncc1)c1ccco1` (configuration not stated), the Potency is reported as “inactive”. With `Cc1cc(Cl)nc2ccc([N+](=O)[O-])cc12` the Potency was “inactive”. `O=C(Nc1ccc(I)cc1)C1CC2CCC1C2` (configuration not stated) was tested, and the Potency was “inactive”. With `CCc1nnc(SCc2nc(-c3ccccc3)oc2C)c2cc3sccc3n12` the Potency was inconclusive: 20 µM [inhibitor, full curve, poor fit]. In the case of `CCCCCCCCc1ccc(-c2ccc(C(=O)O)cc2)cc1`, the Potency is reported as inconclusive: 89.1 µM [inhibitor, partial curve, poor fit] and active: 89.1 µM. In the case of `COc1ccc(CNC(=O)/C=C/c2ccc(C)cc2)cc1`, the Potency is reported as “inactive”. In the case of `O=C(NCc1ccc(F)cc1)c1cc2c(s1)-c1ccccc1SC2`, the Potency is reported as inconclusive: 22.4 µM [inhibitor, partial curve, poor fit]. With `CC(C)C(=O)NC(NC(=O)C(C)C)c1cc(Br)ccc1F` the Potency was “inactive”.
